Laboratory results published in patent US20260224736A1, “HSC-SPECIFIC ANTIBODY CONJUGATED LIPID NANOPARTICLES AND USES THEREOF” (GENZYME CORPORATION, priority 2023, published 2026).

System: primary human HSCs
Test: Screen of LNP-Fab and LNP-antibody conjugates for transfection of HSCs (GFP and DiI fluorescence)
Type: cell-based
Conditions: Fab or antibody conjugated to KC3 LNPs with GFP mRNA; 24 and 72 hours; constant RNA concentration 1 pig/mL
Description: HSC media was made using SFEM II media from StemCell™ Technologies as the base media. The SFEM II media was supplemented with the CD34+ expansion supplement to make the final HSC media formulation. Cryovials of 10 million primary human HSCs (isolated from a leukopak of G-CSF and Plerixaflor mobilized patients) were thawed using HSC media. After thawing, 1 mL of media was added dropwise to the vial and the entire volume was transferred to a 15 mL conical tube. 8 mL of additional media was added to the cell suspension and the total number of cells was counted using an NC-202™ automated cell counter. The cells were spun down and resuspended at a concentration of 1 million cells per 1 mL of media. […] On day 3 of culture, the cells were again counted on the NC-202™. […]
Using the methods described in Examples 4 and 5, KC3 LNPs encapsulating GFP mRNA were conjugated with 23 Fabs and commercially-obtained full-length antibody combinations over 3 Fab/antibody densities that target specific cell-surface markers of HSCs, including CD34, CD105 and CD117 (Table 7). […] The GFP mRNA was used to measure transfection, as the mRNA must enter the cell and escape the endosome to be transcribed into protein, allowing for fluorescence. The DiIC(18)5-DS was used as a measure of LNP targeting because the cells will have DiI fluorescence so long as the LNPs are capable of binding to the HSCs. […]

B1: Ab1 (antibody)
heavy: [letters of about 100 residues left out]GPPTYHTNYYYMDVWGKGTTVTVSSASTKGPSVFPLAPSSKSTSGGTAALGCLVKDYFPEPVTVSWNSGALTSGVHTCPAVLQSSGLYSLSSVVTVPSSSLGTQTYICNVNHKPSNTKVDKKVEPKSSDKTHTCGGHHHHHH
light: DIQMTQSPSSVSASVGDRVTITCRASQGISSWLAWYQQKPGKAPKLLIYAASSLQSGVPSRFSGSGSGTDFTLTISSLQPEDFATYYCQQTNSFPYTFGGGTKVEIKRTVAAPSVFIFPPSDEQLKSGTASVVCLLNNFYPREAKVQWKVDNALQSGNSQESVTEQDSKDSTYSLCSTLTLSKADYEKHKVYACEVTHQGLSSPVTKSFNRGES
- transfection of primary HSCs with mRNA (GFP and DiI fluorescence): highest transfection efficiency
